{"source": "ChEMBL document CHEMBL4888484", "about": "“Replenishing the malaria drug discovery pipeline: Screening and hit evaluation of the MMV Hit Generation Library 1 (HGL1) against asexual blood stage Plasmodium falciparum ,using a nano luciferase reporter read-out” (2022)", "system": "Plasmodium falciparum", "test": "Primary screen in NF54 nanoGlo assay, in single point, at 2uM, 72h; a lower Z score goes with more inhibition", "type": "functional, Erythrocyte", "conditions": "timepoint 72 hour", "note": "Several values for one entry are separate records, joined by “and”; a condition that tells them apart may be missing. Equal entries are not always repeated. Screen size: about 150,000 compounds; about 540 (0.36%) showed an effect of 50% or more. Some of the results follow."}
{"smiles": "COc1ccc(C(=O)Nc2nc3c(s2)CN(S(=O)(=O)c2ccc(C)cc2)CC3)c(OC)c1", "values": [{"measurement": "% Inhibition", "result": -14, "unit": "%"}, {"measurement": "Z score", "result": 1.87}]}
{"smiles": "CCc1nnc(N2CCN(CCCOC)CC2)o1", "values": [{"measurement": "% Inhibition", "result": 12, "unit": "%"}, {"measurement": "Z score", "result": -1.52}]}
{"smiles": "O=C(NCc1ccc(F)cc1)C(=O)NC[C@](O)(c1ccoc1)c1ccco1", "values": [{"measurement": "% Inhibition", "result": -8, "unit": "%"}, {"measurement": "Z score", "result": 1.19}]}
{"smiles": "CC(=O)N[C@H]1C[C@@H](c2cc(N(C)CCc3cnn(C)c3)nc(C)n2)C1", "values": [{"measurement": "% Inhibition", "result": -6, "unit": "%"}, {"measurement": "Z score", "result": 0.71}]}
{"smiles": "O=C(N[C@H]1C[C@@H](c2cc(N3CCOCC3)ncn2)C1)c1cn[nH]c1", "values": [{"measurement": "% Inhibition", "result": -8, "unit": "%"}, {"measurement": "Z score", "result": 1.41}]}
{"smiles": "CCCCc1nc(N2CCN(S(=O)(=O)c3ccc(F)cc3)CC2)c2c(C)nn(-c3ccccc3)c2n1", "values": [{"measurement": "% Inhibition", "result": -3, "unit": "%"}, {"measurement": "Z score", "result": 0.4}]}
{"smiles": "Brc1ccc(-c2nc(Cn3ccnn3)co2)cc1", "values": [{"measurement": "% Inhibition", "result": -11, "unit": "%"}, {"measurement": "Z score", "result": 1.68}]}
{"smiles": "C[C@H]1Cc2cc(S(=O)(=O)N3CCOCC3)ccc2N1S(=O)(=O)c1ccccc1", "values": [{"measurement": "% Inhibition", "result": -10, "unit": "%"}, {"measurement": "Z score", "result": 1.67}]}
{"smiles": "Cc1c(N2CCOCC2)c(C)n(Cc2cccc(F)c2)c1C(=O)NCCN1CCOCC1", "values": [{"measurement": "% Inhibition", "result": -3, "unit": "%"}, {"measurement": "Z score", "result": 0.57}]}
{"smiles": "Cc1noc(CN2CCC3(CC2)C[C@H](c2ccccc2)CN(C2CC2)C3)n1", "values": [{"measurement": "% Inhibition", "result": -1, "unit": "%"}, {"measurement": "Z score", "result": 0.14}]}
{"smiles": "CCc1nnc2n1CCN(CCc1ccncc1)C2", "values": [{"measurement": "% Inhibition", "result": 2, "unit": "%"}, {"measurement": "Z score", "result": -0.33}]}
{"smiles": "CC(Oc1cccc(F)c1)C1=NC(=O)[C@@H]2[C@@H](C)OCCN12", "note": "(stereo partly drawn)", "values": [{"measurement": "% Inhibition", "result": -15, "unit": "%"}, {"measurement": "Z score", "result": 1.34}]}
{"smiles": "CC(C)N1C(=O)[C@](C)(C(=O)Nc2ccc(F)cc2)Oc2cccnc21", "values": [{"measurement": "% Inhibition", "result": -11, "unit": "%"}, {"measurement": "Z score", "result": 1.86}]}
{"smiles": "CCCC(CCC)C(=O)NCc1cn([C@@H]2COC[C@H]2OC)nn1", "values": [{"measurement": "% Inhibition", "result": 28, "unit": "%"}, {"measurement": "Z score", "result": -3.2}]}
{"smiles": "O=C(Cn1nc2ccc(C(=O)NCc3ccccc3)cn2c1=O)NCCc1ccc(Cl)cc1", "values": [{"measurement": "% Inhibition", "result": -16, "unit": "%"}, {"measurement": "Z score", "result": 1.43}]}
{"smiles": "CN(Cc1cnn(Cc2ccccc2)c1)Cn1c(=S)sc2ccccc21", "values": [{"measurement": "% Inhibition", "result": -4, "unit": "%"}, {"measurement": "Z score", "result": 0.84}]}
{"smiles": "CC(C)Cn1c(=O)c(N2CCN(C(=O)c3ccccc3)CC2)nc2ccccc21", "values": [{"measurement": "% Inhibition", "result": -4, "unit": "%"}, {"measurement": "Z score", "result": 0.44}]}
{"smiles": "O=C(N[C@H]1CCc2n[nH]c(=O)cc2C1)c1ccc2[nH]cnc2c1", "values": [{"measurement": "% Inhibition", "result": -7, "unit": "%"}, {"measurement": "Z score", "result": 1.09}]}
{"smiles": "COc1cccc(-c2ccc(N3CCCN(C(=O)CN(Cc4ccc(F)cc4)C(=O)NC(C)C)CC3)nn2)c1", "values": [{"measurement": "% Inhibition", "result": -24, "unit": "%"}, {"measurement": "Z score", "result": 2.98}]}
{"smiles": "O=C(C[C@H]1CCS(=O)(=O)C1)Nc1nc(-c2ccccc2)cs1", "values": [{"measurement": "% Inhibition", "result": 5, "unit": "%"}, {"measurement": "Z score", "result": -0.65}]}
{"smiles": "COC(=O)[C@@]1(C(C)C)N[C@@H](c2nc(C(C)C)cs2)[C@H]2C(=O)N(C)C(=O)[C@H]21", "values": [{"measurement": "% Inhibition", "result": -9, "unit": "%"}, {"measurement": "Z score", "result": 1.77}]}
{"smiles": "COC1(C)CN(C(=O)[C@@H]2CC[C@H](C(=O)N3CC(C)(OC)C3)C2)C1", "values": [{"measurement": "% Inhibition", "result": 5, "unit": "%"}, {"measurement": "Z score", "result": -0.96}]}
{"smiles": "CC(C)(C)N1C[C@@H](CNC(=O)CCCn2cncn2)CC1=O", "values": [{"measurement": "% Inhibition", "result": -14, "unit": "%"}, {"measurement": "Z score", "result": 1.52}]}
{"smiles": "CCCN(CCN(CC)CC)CC(=O)NCc1ccccc1C", "values": [{"measurement": "% Inhibition", "result": -1, "unit": "%"}, {"measurement": "Z score", "result": 0.07}]}
{"smiles": "CCn1ccnc1CNC(=O)c1cc(COc2ccc3sc(C)nc3c2)on1", "values": [{"measurement": "% Inhibition", "result": -19, "unit": "%"}, {"measurement": "Z score", "result": 1.71}]}
{"smiles": "CN(C)C(=O)c1ccc(OC[C@H]2CCCO2)nc1", "values": [{"measurement": "% Inhibition", "result": 5, "unit": "%"}, {"measurement": "Z score", "result": -0.82}]}
{"smiles": "O=C(Nc1nc(-c2ccc3c(c2)OCCO3)cs1)c1cc(Cl)sc1Cl", "values": [{"measurement": "% Inhibition", "result": -2, "unit": "%"}, {"measurement": "Z score", "result": 0.31}]}
{"smiles": "CCOC(=O)[C@H]1CCCN(S(=O)(=O)c2ccc(Cl)c(-c3nnc(-c4ccccc4)o3)c2)C1", "values": [{"measurement": "% Inhibition", "result": -7, "unit": "%"}, {"measurement": "Z score", "result": 1.16}]}
{"smiles": "O=C(c1cscn1)N1CC[C@H](Oc2cccc(Cl)c2)C1", "values": [{"measurement": "% Inhibition", "result": 44, "unit": "%"}, {"measurement": "Z score", "result": -7.13}]}
{"smiles": "O=C(CNc1cccc(Cl)c1)N1CCC(c2ccon2)CC1", "values": [{"measurement": "% Inhibition", "result": 0, "unit": "%"}, {"measurement": "Z score", "result": -0.02}]}
{"smiles": "O=C(Cn1nc2ccc(C(=O)NCc3ccccc3)cn2c1=O)Nc1cccc(Br)c1", "values": [{"measurement": "% Inhibition", "result": -18, "unit": "%"}, {"measurement": "Z score", "result": 1.55}]}
{"smiles": "CC1CCN([C@@H](CNC(=O)c2ccc(S(=O)(=O)N3CCCC3)cc2)c2cccs2)CC1", "values": [{"measurement": "% Inhibition", "result": -24, "unit": "%"}, {"measurement": "Z score", "result": 2.77}]}
{"smiles": "CN(C)C(=NC(=O)Nc1cccc(C(F)(F)F)c1)N(C)C", "values": [{"measurement": "% Inhibition", "result": 1, "unit": "%"}, {"measurement": "Z score", "result": -0.2}]}
{"smiles": "CN(C)c1cc(-n2cc(Br)cn2)ncn1", "values": [{"measurement": "% Inhibition", "result": 0, "unit": "%"}, {"measurement": "Z score", "result": -0.03}]}
{"smiles": "CC(C)[C@@H]1CN(c2cc(N)ncn2)CCCN1Cc1ccc(F)cc1", "values": [{"measurement": "% Inhibition", "result": 2, "unit": "%"}, {"measurement": "Z score", "result": -0.24}]}
{"smiles": "Cc1ccc([C@H]2c3cc(OCc4nc(C(=O)N(C)C(C)C)co4)ccc3CCN2C(=O)C2CCCC2)cc1", "values": [{"measurement": "% Inhibition", "result": -14, "unit": "%"}, {"measurement": "Z score", "result": 2.15}]}
{"smiles": "CCOC1CC(NC(=O)c2ccc3sccc3c2)(C(=O)O)C1(C)C", "note": "(stereo not drawn)", "values": [{"measurement": "% Inhibition", "result": 2, "unit": "%"}, {"measurement": "Z score", "result": -0.19}]}
{"smiles": "COc1cccc(NC(=O)CN2CCCn3nc(C)cc32)c1", "values": [{"measurement": "% Inhibition", "result": 9, "unit": "%"}, {"measurement": "Z score", "result": -1.63}]}
{"smiles": "C#CCN1CCN(Cc2ccnn2C)CC1", "values": [{"measurement": "% Inhibition", "result": -5, "unit": "%"}, {"measurement": "Z score", "result": 0.66}]}
{"smiles": "CCS(=O)(=O)c1ccc(N(C)CCN2CCCC2=O)cc1", "values": [{"measurement": "% Inhibition", "result": 9, "unit": "%"}, {"measurement": "Z score", "result": -0.97}]}
{"smiles": "CN1CCc2c(c(NCCc3ccccc3)[nH]c3nnc(N)c2-3)C1", "values": [{"measurement": "% Inhibition", "result": -14, "unit": "%"}, {"measurement": "Z score", "result": 1.79}]}
{"smiles": "CC1(C)OC(=O)C[C@@H]1C(=O)Nc1nnc[nH]1", "values": [{"measurement": "% Inhibition", "setting": "2 µM", "result": "-12% and 7%"}]}
